The record followed here is ChEMBL document CHEMBL1201862, “PubChem BioAssay data set” (2004).

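Method: 48-hour compound exposure of cells in 96-well plates, five concentrations, linear interpolation of endpoints. Here, GI50 denotes the concentration required for 50% inhibition of growth.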 Calls of active or inactive are those of the source. Cut-off read from the data, not from the text of the source: active = GI50 up to about 1.1 µM and inactive = higher. A value given as a limit tells only on which side of the number the result lay.

The test system of this test is NCI-H322M. The test is described as follows: inhibition of tumour cell growth, NCI panel, 48 h.
As for `CC1NC(C(=O)O)Cc2cc(O)c(O)cc21` (configuration not stated), the GI50 was inactive: > 100 µM. The figure for `CC(C)c1ccc(/C(C(=O)O)=C(\O)C(=O)O)cc1` is inactive: > 100 µM. For the molecule `CCCCCCCC/C=C\CCCCCCC/C=C1/C[C@](/C=C/C(=O)OC)(CO)OC1=O`, the GI50 is inactive: 16.7 µM.

For the molecule `C/C(=N\N=C(/S)N(C)C)c1cccc[n+]1[O-]`, the GI50 was inactive: 11.5 µM. To `CCOC(=O)c1c(NNc2ccccc2)nc2ccccc2c1-c1ccccc1` belongs inactive: 41.1 µM; to `O=C(Nc1ccccc1C(=O)NCc1ccccc1)/C(=C/c1ccccc1O)NC(=O)c1ccccc1`, inactive: > 100 µM. To `CN(C)C(=S)/N=c1\ss/c(=N\C(=S)N(C)C)n1-c1ccc(Cl)cc1` belongs inactive: > 100 µM; to `CC(C)(C)c1ccc(O)c(C[N+](C)(C)C)c1`, inactive: > 100 µM; to `COC(=O)C(=O)C(C(=O)C=C(C)C)C(=O)C(=O)Nc1ccc(Cl)cc1C` (configuration not stated), inactive: > 100 µM. The figure for `CCOC(=O)C12C(C(=O)OC)=C(C)N(NC(=O)Nc3ccccc3)C1(N)N(NC(=O)Nc1ccccc1)C(C)=C2C(=O)OC` (configuration not stated) is inactive: 26.7 µM. For the molecule `COC(=O)c1ccccc1C1CN=NC12Cc1ccc3c(c1C2=O)CCC3` (configuration not stated), the GI50 was inactive: > 100 µM.

Take `CCn1ncc2c(=O)n3ncn(-c4ccc(Br)cc4)c3nc21`: the GI50 was inactive: > 100 µM. To `COc1cccc(C2CC(C)(O)Oc3cc4c(cc32)OCO4)c1` (configuration not stated) belongs inactive: 53.5 µM; to `O=c1c(-c2ccccc2)c(O)nc2[nH]c3ccccc3n12`, inactive: > 100 µM; to `Cc1oc2c(c1C)S(=O)(=O)C(C#N)C(c1ccccc1)N2` (configuration not stated), inactive: 97.7 µM.

As to `COC1=CC(=O)NCCN1`, the GI50 was inactive: > 100 µM. To `CCC(CC)n1c(C)nc2c1C(=O)c1ccccc1C2=O` belongs inactive: 76.2 µM; to `COc1ccc(/C=N/NC(=O)c2cnc3[nH]c(=O)n(C)c(=O)c3c2)cc1`, inactive: > 100 µM. To `O=[N+]([O-])c1ccc(-c2cnc3ccccn23)cc1` belongs inactive: > 100 µM. The figure for `CCOC(=O)CCC(NC(=O)c1ccc(CNc2nc3ccccc3nc2C(=O)OCC)cc1)C(=O)OCC` (configuration not stated) is inactive: > 100 µM; for `CN(C)CCc1ccc(Cl)cc1Cl` it is inactive: > 100 µM; for `Cc1c2cnccc2c(C)c2c1c1ccccc1n2CCCCCCNCc1ccccc1` it is inactive: 1.17 µM. On to `Cc1n[nH]c(=O)n1/N=C/c1cccs1`, for which the GI50 was inactive: > 100 µM.

`O=C1CCCc2cc3c(cc21)CC1(C3)Cc2ccc3c(c2C1)C(=O)CCC3` (configuration not stated): the GI50 was inactive: 47.8 µM. The figure for `CN1C/C(=C\c2cccs2)C2=NC(=S)NC(c3cccs3)C2C1` (configuration not stated) is inactive: > 100 µM; for `Cc1ccc(S(=O)(=O)N2CCCSCCSCCCN(S(=O)(=O)c3ccc(C)cc3)CC2)cc1` it is inactive: > 100 µM. To `CCOC(=O)[C@@]12NN=N[C@@H]1[C@H]1CO[C@H](c3ccccc3)N1C2=O` belongs inactive: 15.9 µM; to `COc1cc(OC)c2c(=O)c3cccc(C)c3n(C)c2c1`, inactive: 63.7 µM; to `C[Si](C)(C)C#CCO[Si](C)(C)C`, inactive: > 100 µM. The figure for `O/N=C\C(=N/O)Nc1ccc(Cc2ccc(NC(/C=N\O)=N/O)cc2)cc1` is inactive: 36.9 µM; for `COc1ccc2c(c1)CCc1c-2n(CCN2CCCCC2)c2ccc(OC)cc12` it is inactive: > 100 µM. With `CC1=NNC(=O)C1C(CC(=O)c1c[nH]c2ccccc12)C(=O)O` (configuration not stated), the GI50 was inactive: > 100 µM. To `CC(=O)OCC1OC(n2c(=O)[nH]c(=O)c3nn[nH]c32)C(OC(C)=O)C(OC(C)=O)C1OC(C)=O` (configuration not stated) belongs inactive: > 100 µM; to `CCN(CC)c1ccc(/N=C2/C=CC(=C(C#N)C#N)c3ccccc32)c(C)c1`, inactive: 4.06 µM. The figure for `CCc1cccc(CC)c1NC(=O)CC1SC(N)=NC1=O` (configuration not stated) is inactive: > 100 µM; for `OCC(O)C(O)C(O)C(O)c1nnn[nH]1` (configuration not stated) it is inactive: > 100 µM. In the case of `CCC1([N+](=O)[O-])CC2C=CC1C2` (configuration not stated), the GI50 is inactive: > 100 µM. The figure for `Cc1ccc(S(=O)(=O)c2c(N)c3nc4ccccc4n3c3nc4ccccc4nc23)cc1` is inactive: > 100 µM. In the case of `Nc1[nH]c(=S)[nH]c(=O)c1/N=N/c1c(Br)cc(S(N)(=O)=O)cc1Br`, the GI50 is inactive: > 100 µM. The figure for `Cc1ccccc1C(C#N)/C(=N/NC(N)=S)C(=O)Nc1c(C)cccc1C` (configuration not stated) is inactive: > 100 µM; for `CN1C(=O)N(c2ccccc2)C2(CCN(CC3COc4ccccc4O3)CC2)C1=O` (configuration not stated) it is inactive: > 100 µM; for `COC(=O)N/N=C(\c1ccccc1)c1ccc(OC)cc1` it is inactive: > 100 µM.

Consider `O=C(Oc1ccccc1)N1c2ccccc2[C@@]23O[C@]24CCC[C@H]3C#C/C=C\C#C[C@H]14`, for which the GI50 was inactive: > 10 µM. To `O=C(Nc1ccccc1C(=O)O)C(=Cc1ccccc1O)NC(=O)c1ccccc1` belongs inactive: > 100 µM; to `Cc1oc2c(Cl)cc(O)c(Cl)c2c2cccc1-2`, inactive: 41.2 µM. The figure for `C=CCC1(C(=O)OC(C)(C)C)C(OC)=C(C(=O)OC(C)(C)C)C2C1C(C(=O)OC(C)(C)C)=C(OC)C2(CC=C)C(=O)OC(C)(C)C` (configuration not stated) is inactive: > 100 µM; for `Cc1ccc(/N=N/C(=N/NC(=O)c2cc(Cl)ccc2O)c2ccc(N(CCC#N)CCC#N)cc2C)cc1` it is inactive: 29.9 µM. The figure for `C=[N+](CNC(=O)CNC(=O)C(Cc1ccc([N+](=O)[O-])cc1)NC(=O)OC(C)(C)C)C(=O)CNC(=O)C(Cc1ccc([N+](=O)[O-])cc1)NC(=O)OC(C)(C)C` (configuration not stated) is inactive: 59.2 µM; for `CCOC(=O)C1C2CCC(C2)C1(CCl)C(=O)OCC` (configuration not stated) it is inactive: > 100 µM; for `Cc1nnc2n1N=C(c1cc(F)c(Cl)cc1Cl)/C(=C/c1ccc3c(c1)OCO3)S2` it is inactive: 23.8 µM. For the molecule `N=C(N)NS(=O)(=O)c1ccc(NC(=O)c2ccc3nc4ccccc4c(Nc4ccc(S(N)(=O)=O)cc4)c3c2)cc1`, the GI50 was inactive: > 100 µM. Regarding `COc1ccc(C(=O)N(C(=O)N2CCN(c3ccccc3)CC2)S(=O)(=O)c2ccccc2)cc1`, the GI50 is inactive: 34.9 µM. The figure for `COC(=O)c1c2c(cc3c1CC1(Cc4ccccc4C1=O)C3)CCC2` (configuration not stated) is inactive: 29.5 µM. To `BrC1(c2ccccc2)C[n+]2c(-c3ccccc3)cc(-c3ccccc3)cc2-c2ccccc21` (configuration not stated) belongs inactive: 2.49 µM. The figure for `CCOc1ccc2c(c1)c(=O)c1c(NCCN(CC)CC)ccc3nnn2c31` is inactive: 14.4 µM. Regarding `C[n+]1c2ccccc2c(N=[N+]=[N-])c2ccccc21`, the GI50 was inactive: > 10 µM. To `CN(C)CCCNc1c2c(=O)n(C)c(=O)nc-2n(C)c2ccccc12` belongs inactive: 3.78 µM. To `Cc1cc(C)c2c(n1)S(=O)(=O)N(CCCN1CCN(c3cccc(C(F)(F)F)c3)CC1)c1c-2nn(C)c1C` belongs inactive: 68.2 µM.

For the molecule `CC(C)(C)OC(=O)N(CCCCNC(=O)C(F)(F)F)CCCNC(=O)C(F)(F)F`, the GI50 is inactive: > 100 µM.

With `N#CS/C(C(Cl)=C(Cl)Cl)=C(/Cl)[N+](=O)[O-]`, the GI50 was inactive: 17.7 µM. To `O=[N+]([O-])c1cnn(C2=CNc3ccccc3N=C2)c1` belongs inactive: > 100 µM; to `N#CC(c1ccccc1)N(CCc1ccccc1)C(=O)c1ccccc1` (configuration not stated), inactive: > 100 µM; to `Cc1ccc2ccc(-c3ccccc3)c3c2c1C(=O)c1ccccc1C3=O`, inactive: > 100 µM. The figure for `Cc1cc(N(CCOS(C)(=O)=O)CCOS(C)(=O)=O)ccc1/C=N/c1ccc(-c2nc(Cc3ccccc3)sc2C)cc1` is inactive: 4.95 µM; for `CC(=O)NC1C(OCc2ccccc2)OC(CO)C(O)C1OCC(=O)N1CCCC1C(=O)N[C@@H](CCC(=O)NCCCCNc1c2ccccc2nc2cccc([N+](=O)[O-])c12)C(N)=O` (some centres not stated) it is inactive: 23.4 µM. Regarding `CN1CCN(C(=S)N(C(=O)c2ccco2)c2ccccc2)CC1`, the GI50 is inactive: > 100 µM. The figure for `CCOC(=O)[C@H]1C[C@]23CN(C(=O)OC(C)(C)C)CC[C@H]2CCC2(SCCCS2)[C@@H]3N1C` is inactive: 54 µM; for `COc1cc(OC)c2c(c1)C(=O)C(CC(C)O)=CC2=O` (configuration not stated) it is inactive: 17.5 µM; for `C/C(=C\COP(=O)(O)OP(=O)(O)O)CCCCCCOCc1ccccc1` it is inactive: > 100 µM. Consider `CCCCCCCCCCCCCc1nnn[nH]1`, for which the GI50 is inactive: 17.7 µM. Consider `Nc1c(S(=O)(=O)O)cc(Nc2cccc(S(=O)(=O)/C=C/S(=O)(=O)O)c2)c2c1C(=O)c1ccccc1C2=O`, for which the GI50 was inactive: > 100 µM. Consider `C=CCC1([C@H](C)[C@@H](OC(C)=O)c2cc(OC)c(OC)c(OC)c2)C[C@@H](OC)CCC1=O` (some centres not stated), for which the GI50 is inactive: 21.3 µM. To `CC1CC2(CCC1OCc1ccccc1)OCCO2` (configuration not stated) belongs inactive: > 100 µM; to `O=C(C#Cc1cnc(O)nc1O)c1ccccc1`, inactive: 15.3 µM; to `Cc1ccsc1/C(S)=N\c1ccc(Cl)c(/C=N/OC(C)(C)C)c1`, inactive: 43 µM. To `CC(C)(C)c1cc[n+](C[n+]2ccc(C(C)(C)C)cc2)cc1` belongs inactive: > 100 µM. To `CCCCCC(=O)N[C@H]1CCc2cc(OC)c(OC)c(OC)c2-c2ccc(SC)c(=O)cc21` belongs active: 0.0282 µM; to `Nc1ncnc2c1ncn2C1CC(O)C(CO)O1` (configuration not stated), inactive: > 100 µM. For the molecule `C[N+]1(C)CC[N+](C)(C)[BH-]1C(O)O`, the GI50 was inactive: > 100 µM. To `Cn1c(O)c(C2=Nc3ccccc3C2=O)c2ccccc21` belongs inactive: > 100 µM; to `COc1ccc2c(=O)c(-c3cc(OC)c(OC)cc3OC)coc2c1`, inactive: 18.3 µM. The figure for `COC(=O)c1cc2c3ccccc3n(C(C)=O)c2cn1` is inactive: 36.5 µM.
